# Test results from the supplement of paper PMC12217912.
# Some of the results follow. The full chains were built here from the parent and the listed change. Values near 0.05 are background.
# B1: TEV protease; numbered along this chain (parent)
# chain: MGESLFKGPRDYNPISSSICHLTNESDGHTTSLYGIGFGPFIITNKHLFRRNNGTLVVQSLHGVFKVKDTTTLQQHLVDGRDMIIIRMPKDFPPFPQKLKFREPQREERICLVTTNFQTKSMSSMVSDTSCTFPSGDGIFWKHWIQTKDGQCGSPLVSTRDGFIVGIHSASNFTNTNNYFTSVPKNFMELLTNQEAQQWVSGWRLNADSVLWGGHKVFMVKPEEPFQPVKEATQL
# Variants of: B1
# Assay: raw area under fraction-flipped curve 0-4 h after induction (AUC4h, not background-subtracted), DNA-recorder readout of cleavage of the substrate (dimensionless); higher = more cleavage of the substrate by the protease variant
# Details: temperature: 34 °C; time window: 0-4 h after rhamnose induction
# Experimental: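 In vivo DNA recorder in E. coli TOP10(DE3) ΔrhaA at 34 °C. Each TEVp single-site mutant (parent TEVp 0) is paired with a single-site variant of the 7-mer TEVs (canonical ENLYFQ|S). The substrate sits between flexible linkers in a Bxb1-sfGFP-TEVs-SsrA fusion, so cleavage stabilises Bxb1 and speeds flipping of a recombination array, read by NGS. The value is the raw area under the fraction-flipped curve over 0-4 h after rhamnose induction (AUC4h), with ≥20 reads per time point. It is not background-subtracted; inactive controls average about 0.047.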
# 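Note: Bxb1 expression induced with 0.2% (w/v) L-rhamnose at OD600 near 0.5, cultures sampled hourly, flipped fraction per protease–substrate barcode pair counted by paired-end Illumina sequencing.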
Variant,area with substrate CNLYFQS,area with substrate GNLYFQS,area with substrate KNLYFQS,area with substrate TNLYFQS,area with substrate WNLYFQS,area with substrate HNLYFQS,area with substrate INLYFQS,area with substrate NNLYFQS,area with substrate PNLYFQS,area with substrate SNLYFQS,area with substrate VNLYFQS,area with substrate YNLYFQS,area with substrate FNLYFQS,area with substrate LNLYFQS,area with substrate MNLYFQS,area with substrate QNLYFQS,area with substrate RNLYFQS,area with substrate DNLYFQS
A232T,0.0673,0.065,0.061,0.0684,0.0552,–,–,–,–,–,–,–,–,–,–,–,–,–
A232M,0.0565,0.073,0.0691,–,–,0.0582,0.067,0.0643,0.0635,0.0765,0.0619,0.0753,–,–,–,–,–,–
A232F,0.0596,–,–,0.06,0.083,0.0507,–,–,–,0.0634,0.0683,–,0.0704,0.0793,0.0607,–,–,–
A232G,0.0606,–,–,–,0.0602,0.0752,–,–,–,–,–,–,0.0731,0.0644,0.0678,0.0647,–,–
A232H,0.0573,0.0811,–,0.0638,0.0845,0.0746,–,–,–,0.0549,–,–,–,–,0.0582,–,–,–
A232C,0.0635,–,0.0844,0.0697,0.0578,–,0.0656,–,0.069,–,–,0.0773,0.0619,0.0566,–,0.0622,–,–
T176C,0.0735,–,0.0611,0.0629,0.0578,0.0662,–,–,0.0615,0.0553,–,0.0427,–,–,–,–,0.0568,–
T176N,0.066,–,–,0.0629,0.0697,0.0645,–,0.0613,0.0605,–,–,0.0658,–,–,–,–,0.0484,–
T176S,0.0618,–,0.0686,–,0.053,0.066,–,0.0685,0.0603,0.0631,0.0626,–,0.0812,0.059,–,–,0.0503,0.0739
T176V,–,–,–,–,–,–,–,–,–,–,–,0.0579,–,0.0586,–,–,–,0.0825
T176M,0.0564,0.0684,0.0639,0.0554,0.0474,0.0484,–,–,–,–,–,0.0669,0.051,0.0535,–,0.0701,0.0626,0.0696
T176R,0.0959,–,–,–,–,0.0638,–,0.0621,–,0.0533,–,–,–,0.0669,0.0632,0.0637,–,–
P104D,–,0.0313,0.0567,0.056,0.0494,0.0514,–,–,0.0466,0.0528,–,–,–,–,0.0534,–,0.0655,0.0537
P104T,–,0.0396,–,0.0529,0.0529,0.0384,0.0696,–,0.063,–,–,0.0463,–,0.0567,–,–,–,0.0431
K216Q,–,0.0593,0.0441,–,–,0.0633,–,0.0607,0.0909,–,0.0895,–,–,–,–,–,–,0.0831
K216H,0.068,–,–,0.0758,0.0503,0.0598,–,0.0583,0.0592,0.0639,0.0758,–,0.0548,0.0702,–,0.0804,–,0.0696
K216G,0.0487,0.0616,–,0.0533,0.0451,0.0467,0.0563,0.0555,0.0574,0.0416,0.0504,0.0532,–,0.0522,0.0451,0.0543,0.0494,–
K216S,0.0554,–,–,–,–,0.0737,–,–,0.0729,–,–,0.0784,–,0.0498,0.0653,–,–,–

Variant,area with substrate CNLYFQS,area with substrate GNLYFQS,area with substrate KNLYFQS,area with substrate TNLYFQS,area with substrate WNLYFQS,area with substrate HNLYFQS,area with substrate INLYFQS,area with substrate NNLYFQS,area with substrate PNLYFQS,area with substrate SNLYFQS,area with substrate VNLYFQS,area with substrate YNLYFQS,area with substrate FNLYFQS,area with substrate LNLYFQS,area with substrate MNLYFQS,area with substrate QNLYFQS,area with substrate RNLYFQS,area with substrate DNLYFQS
L112Y,–,0.0639,0.0654,0.0591,0.0554,0.0688,–,0.072,–,0.0567,–,0.0481,0.065,0.0544,0.0542,–,–,0.0665
L112S,–,–,–,0.0575,0.055,0.0352,0.0542,0.0622,0.0645,–,–,0.0447,–,0.0541,0.0478,–,–,0.0418
P96M,–,0.0687,–,–,0.0547,0.0657,–,–,0.0525,0.0693,–,0.0717,–,0.0675,0.0567,0.0611,–,0.0618
D128R,–,0.0742,0.0652,–,0.065,0.0716,0.0809,–,0.0735,–,–,–,–,–,–,0.0814,0.0664,0.118
D128A,–,0.105,0.0742,–,0.0564,0.0612,0.0494,–,–,0.0776,–,–,–,0.0697,–,–,–,0.0935
V200S,–,–,–,–,–,–,–,–,–,–,–,–,–,0.0572,0.0592,–,–,0.0476
V200W,–,–,–,0.056,0.0624,0.0611,0.0547,–,0.0499,0.0646,–,–,–,0.0628,0.0564,–,–,0.0592
V200P,0.053,0.0719,–,0.0574,0.0554,–,–,–,0.0618,–,–,–,0.0614,–,–,0.0559,–,0.077
V200T,0.0377,0.0748,0.0775,–,0.0602,0.0804,0.0574,–,–,0.072,–,–,–,0.0716,–,–,0.0826,–
W144V,–,–,–,–,0.0677,0.0645,–,0.0636,0.0646,–,–,0.0649,0.0557,0.0716,–,–,–,0.0574
W144P,0.0755,0.0783,0.0722,0.0736,0.0684,–,0.0645,0.0537,0.0737,0.0566,0.0594,0.0496,0.0616,0.0631,0.0572,–,0.0607,–
H168Q,0.053,0.0529,0.073,0.0518,0.0609,0.0534,0.0259,0.0969,0.0536,0.0217,0.0518,0.0578,0.0607,0.0461,0.0587,0.0508,–,–
H168G,–,0.0576,0.0701,–,–,0.0567,–,–,0.0586,0.0753,–,–,–,–,–,–,–,0.0586
H168K,0.0517,0.0542,0.0593,0.0642,0.0572,0.0563,–,0.0573,–,–,0.0451,0.0591,–,–,–,–,0.0795,–
H168N,0.049,0.0535,–,–,0.0546,–,–,0.0996,0.0542,–,–,–,–,–,–,–,0.0568,–
H168M,0.0586,0.0651,0.0704,0.0576,0.0633,0.0635,0.0608,0.0621,0.0591,0.0662,0.0834,0.0598,0.0649,0.0639,0.0468,–,0.0625,0.0525
H168D,0.0571,0.0567,0.0762,0.0341,0.0544,0.0571,0.0783,0.0626,0.055,0.0678,0.0379,0.0493,0.0573,0.0581,0.0499,0.0662,–,0.0573
